Measurements: PMC6172828
Results are given in words; binding and its absence hold for the method and conditions named. In cells and extracts the contact can be indirect. Some binding calls cover weakened binding; strength is not graded here. For some assays here: Tags and fused reporters may be left off the sequences shown.

Legend:
[1] = molecular target: T1, 3xFLAG-ATF7IP Δ(1–16) mutant (stably expressed in Atf7ip KO mESCs) (mouse) (UniProt Q7TT18); assay: co-IP; Atf7ip KO mESCs rescued with 3xFLAG-ATF7IP WT, K16R or Δ(1–16); anti-FLAG M2 beads; endogenous partners detected by western blot
T1 sequence: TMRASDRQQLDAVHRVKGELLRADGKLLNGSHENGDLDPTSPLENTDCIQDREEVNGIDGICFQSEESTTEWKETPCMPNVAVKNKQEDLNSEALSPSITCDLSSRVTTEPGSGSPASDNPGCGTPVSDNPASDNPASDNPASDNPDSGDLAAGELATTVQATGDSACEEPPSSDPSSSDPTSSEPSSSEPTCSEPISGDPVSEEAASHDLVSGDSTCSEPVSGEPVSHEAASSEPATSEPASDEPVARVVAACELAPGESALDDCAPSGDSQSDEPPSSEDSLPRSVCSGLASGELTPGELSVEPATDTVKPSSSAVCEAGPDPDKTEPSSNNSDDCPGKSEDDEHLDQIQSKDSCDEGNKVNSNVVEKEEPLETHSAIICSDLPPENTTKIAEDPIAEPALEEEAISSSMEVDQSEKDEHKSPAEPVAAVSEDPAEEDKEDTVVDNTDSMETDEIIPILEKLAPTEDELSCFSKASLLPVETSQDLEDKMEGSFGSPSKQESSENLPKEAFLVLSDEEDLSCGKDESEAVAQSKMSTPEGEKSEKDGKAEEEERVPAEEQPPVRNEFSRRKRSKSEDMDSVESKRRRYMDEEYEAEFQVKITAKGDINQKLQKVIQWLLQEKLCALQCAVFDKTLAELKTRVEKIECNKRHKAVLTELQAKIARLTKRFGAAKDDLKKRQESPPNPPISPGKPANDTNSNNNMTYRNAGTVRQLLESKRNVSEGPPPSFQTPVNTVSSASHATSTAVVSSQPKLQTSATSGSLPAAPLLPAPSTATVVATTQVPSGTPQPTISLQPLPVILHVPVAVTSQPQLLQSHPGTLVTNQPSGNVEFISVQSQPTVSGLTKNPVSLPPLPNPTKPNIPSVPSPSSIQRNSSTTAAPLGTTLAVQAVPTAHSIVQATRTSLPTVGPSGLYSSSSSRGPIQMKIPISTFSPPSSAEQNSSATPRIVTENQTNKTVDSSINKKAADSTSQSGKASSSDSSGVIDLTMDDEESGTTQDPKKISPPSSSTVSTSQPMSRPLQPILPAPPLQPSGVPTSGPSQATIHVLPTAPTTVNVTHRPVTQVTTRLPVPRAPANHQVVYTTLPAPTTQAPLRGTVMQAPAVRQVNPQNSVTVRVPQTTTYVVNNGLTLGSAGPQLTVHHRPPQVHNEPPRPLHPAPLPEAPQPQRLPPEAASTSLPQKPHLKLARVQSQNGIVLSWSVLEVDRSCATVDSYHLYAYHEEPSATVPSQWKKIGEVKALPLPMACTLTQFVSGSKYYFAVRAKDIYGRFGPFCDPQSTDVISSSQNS

[2] = molecular target: T2, ATF7IP, endogenous in WT mESCs (mouse (endogenous in mESCs)) (UniProt Q7TT18); assay: co-IP; chromatin fraction of WT or Atf7ip KO mESCs, sonicated in normal-lysis buffer; anti-ATF7IP antibody, Protein A and Protein G Dynabeads; western blot
T2 sequence (chain, tri-methylated lysine at K16 (shown on 3xFLAG-ATF7IP in WT mESCs, ~ 92%)): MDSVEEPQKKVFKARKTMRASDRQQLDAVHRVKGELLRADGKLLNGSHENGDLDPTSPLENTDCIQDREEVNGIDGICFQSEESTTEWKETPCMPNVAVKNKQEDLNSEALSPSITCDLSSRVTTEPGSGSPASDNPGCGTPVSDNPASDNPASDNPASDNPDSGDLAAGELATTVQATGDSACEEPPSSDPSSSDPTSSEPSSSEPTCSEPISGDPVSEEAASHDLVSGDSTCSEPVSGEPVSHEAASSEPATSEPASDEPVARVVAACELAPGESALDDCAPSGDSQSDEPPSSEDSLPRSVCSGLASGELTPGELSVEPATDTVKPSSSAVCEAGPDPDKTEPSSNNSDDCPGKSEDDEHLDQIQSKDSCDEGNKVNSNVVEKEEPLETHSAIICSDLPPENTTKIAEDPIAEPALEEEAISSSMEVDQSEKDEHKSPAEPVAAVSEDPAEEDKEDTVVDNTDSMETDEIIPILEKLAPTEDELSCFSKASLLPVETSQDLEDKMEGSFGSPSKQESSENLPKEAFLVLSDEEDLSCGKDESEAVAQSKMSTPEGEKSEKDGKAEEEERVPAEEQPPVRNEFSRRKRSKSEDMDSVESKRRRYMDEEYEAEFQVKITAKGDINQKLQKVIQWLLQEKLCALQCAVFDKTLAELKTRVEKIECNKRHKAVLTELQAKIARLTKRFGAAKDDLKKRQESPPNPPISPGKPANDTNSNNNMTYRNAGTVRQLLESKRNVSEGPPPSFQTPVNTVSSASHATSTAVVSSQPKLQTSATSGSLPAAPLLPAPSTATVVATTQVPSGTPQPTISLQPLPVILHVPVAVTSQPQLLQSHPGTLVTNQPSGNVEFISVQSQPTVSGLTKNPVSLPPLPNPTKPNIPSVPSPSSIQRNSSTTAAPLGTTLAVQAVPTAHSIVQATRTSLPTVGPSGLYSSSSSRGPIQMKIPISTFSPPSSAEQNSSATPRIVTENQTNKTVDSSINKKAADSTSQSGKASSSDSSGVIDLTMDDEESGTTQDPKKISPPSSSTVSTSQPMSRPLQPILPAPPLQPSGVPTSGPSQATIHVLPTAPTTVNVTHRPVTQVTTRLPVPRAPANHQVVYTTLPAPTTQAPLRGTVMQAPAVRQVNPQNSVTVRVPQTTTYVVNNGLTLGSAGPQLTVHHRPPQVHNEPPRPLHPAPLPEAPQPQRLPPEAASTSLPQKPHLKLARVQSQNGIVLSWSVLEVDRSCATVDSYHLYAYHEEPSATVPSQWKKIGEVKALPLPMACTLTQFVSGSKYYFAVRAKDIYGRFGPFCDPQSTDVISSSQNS

B1: M-phase phosphoprotein 8 (MPP8), endogenous in mESCs (protein, UniProt Q3TYA6 1-858)
chain: MAAAAEEGMSAAALVMSVPDSIGRSPESEGVGAGDEEKDAATKGTVAVGDSEEDGEDVFEVERILDMKCEGGKNLYKVRWKGYTSEDDTWEPEVHLEDCKEVLLEFRKKLAENKAKAVRKDIQRLSLNNDIFEADSDSDQQSDTKEDISPRKKKKKIKCKEETSPEDLRKKRTKMGKLKDKFKTELESTSEIIGFDVKTKKRIWEVKEELKDSKKPKKDEIKETKELKKANKRAEVRDLKIKIREDVKENRKTKKERYIESPLESESPNDSLILEDDSEDFISDNREENQNVRSVRDKTAQETVQEGIFEKHLDDLISIEEDAGTRVRRKKTKPRKFEEPKEIKKLESTNAFLERRAIPKKQRNQDKGISNLELNKLPSPVFAQTLKSSRLSGEEKSLKSPDLAEEEKEKKNEPKGKYQKRYDLDKEEKARKEPKVLKSFKEIRNAFDLFKKTTEEKNDVLENNSKREEISLDSKIMNDNKTKDKCSLKEKRNTRDETDTWAYIAAEGDQEVSDSVCQTDETSDGRQPVLSLGMDLQLEWMKLEDFQKHLDGEDEPFITTNRIPNNLLRDAVKNGDYIAVKVALNSNEEYNLDQEDSTGMTLVMLAAAGGQDDLLRLLITKGAKVNGRQKNGTTALIHAAEKNFLTTVAILLEAGAFVNVQQSNGETALMKACKRGNSDIVRLVIECGADCNILSKHQNSALYFAKQCNNVLVYELLKSHLETLSRVAEETIRDYFESRLALLEPVFPIACHRLCEGPDFSTDFNYMPPQNMPEGSGVLLFIFHANFLGKDVIARLCGPCSVQAVVLNDKFQLPVFLDSHFVYSFSPVAGPNKLFIRLTEAPFAKVKLLIGAYRVQLQ
Question: For B1, which binding [1] is on record?
Answer: no binding

Question: And the binding [2]?
Answer: binds
